These results are taken from paper PMC9574860, “Chemical Toolkit for PARK7: Potent, Selective, and High-Throughput” (Journal of Medicinal Chemistry, 2022).

SMILES strings stand for the structures. The whole screen tested about 7,900 compounds, of which about 400 (5.1%) showed an effect of 50% or more. The list shows a part of the results.

Sequence of Parkinson's disease protein 7 (PARK7/DJ1) (Q99497 whole entry, looked up, the tested form may be a part): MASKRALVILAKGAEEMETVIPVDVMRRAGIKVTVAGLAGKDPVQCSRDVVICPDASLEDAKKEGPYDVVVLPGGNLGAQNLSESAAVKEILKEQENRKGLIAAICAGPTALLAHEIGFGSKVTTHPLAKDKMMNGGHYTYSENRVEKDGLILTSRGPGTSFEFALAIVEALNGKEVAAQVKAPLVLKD

For the test, the target named is Parkinson's disease protein 7 (PARK7/DJ1) (human, UniProt Q99497). Kind of test: primary screen, percent inhibition; read as competition with a fluorescent probe by fluorescence polarization; higher = more effect of the substance. Conditions: 100 µM. Put shortly:
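Fluorescence-polarization probe displacement (JYQ-107, 20 nM final, 2 h) after 2 h preincubation of PARK7 (0.2 μM final) with each fragment at 100 μM final. Read-out ex/em 480/520 nm; remaining activity derived from FP signal loss relative to reference controls.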
Regarding `CC(C)(CO)CNC(=O)c1cccnc1S`, the Inhibition % came to 6.61%.
Turning to `Cc1ccc(C)c(Cn2cnc(C#N)n2)c1`, the Inhibition % came out at 2.61%.
As to `O=c1c2nccn2ccn1CCS(=O)(=O)F`, the Inhibition % was determined as 9.64%.
Consider `Cc1cc(B2OC(C)(C)C(C)(C)O2)cc(N)n1`, for which the Inhibition % is reported as 5.05%.
Turning to `CS(=O)(=O)n1cc(N)cn1`, the Inhibition % is reported as 10.7%.
With `C=CC(=O)NC1(C2(C)CC2)CC1`, the Inhibition % is recorded as 11.8%.
On to `O=C(CCl)Nc1ccc(N=Nc2ccccc2)cc1`, for which the Inhibition % is 5.15%.
With `C=CC(=O)Nc1cc2ccccc2nn1`, the Inhibition % amounted to 95%.
For the compound `Cc1ccc(C=CS(=O)(=O)NCCC(=O)O)cc1`, the Inhibition % is 5.97%.
The figure for `Cc1ccc(C=C(C#N)C(=O)N2CCCC2)cc1` is 7.55%; for `O=S(=O)(C=Cc1ccccc1Cl)Nc1ccncc1F` it is 5.26%; for `O=c1[nH]c(S)nc2c1CCC2` it is 5.3%.
For the compound `CC1CN(c2ccc(C#N)nc2)CC(C2CC2)O1` (centres unmarked), the Inhibition % was found to be 14%.
On to `CC1(C)OB(c2ccc3ocnc3c2)OC1(C)C`, for which the Inhibition % is 2.29%.
`N#Cc1cc2cc(Cl)ccc2[nH]1`: the Inhibition % was 3.91%.
With `CC(C(=O)NC1CC1c1ccccc1)N1C(=O)CCC1=O` (centres unmarked), the Inhibition % turned out to be 14.1%.
On to `C=CC(=O)NC1CC(C)c2ccccc21` (centres unmarked), for which the Inhibition % is 3.52%.
For `C=CC(=O)NC1C(=O)N(C)Cc2ccccc21` (centres unmarked), the Inhibition % is reported as 40.9%.
Regarding `N#Cc1ccc(C(=O)CCl)cc1`, the Inhibition % was found to be 18.8%.
On to `N#Cc1cc(C(=O)N[C@@H]2CCC(=O)N[C@H]2C2CC2)ccn1`, for which the Inhibition % is -0.598%.
The figure for `CCc1ccc(-c2csc(NC(=O)CCl)n2)cc1` is 8%; for `C=CC(=O)NC1(C)CCCOC1` (centres unmarked) it is 10.2%.
Regarding `CC1(c2ccc(S(=O)(=O)F)cc2)OCCO1`, the Inhibition % is recorded as 6.74%.
Regarding `O=C(CCCl)Nc1ccccc1F`, the Inhibition % is 6.72%.
With `Cn1cc(C(=O)NS(=O)(=O)C=Cc2ccccc2)cn1`, the Inhibition % was found to be 12%.
As for `C=CC(=O)N1CCN(C(=O)CCOc2ccccc2)CC1`, the Inhibition % is reported as -3.72%.
In the case of `COc1ccc(F)cc1Cn1cnc(C#N)n1` it was 3.22%; in that of `O=C(CCl)c1cnc(N2CCCCC2)s1`, 8.03%; in that of `Cc1cnc(C#N)cc1Cl`, 8.18%.
In the case of `CC(C)Oc1ccc(Oc2cnc(C#N)cn2)cc1`, the Inhibition % was found to be 6.7%.
The figure for `C=CS(=O)(=O)c1nc(C)cs1` is 13.6%; for `O=C(O)c1cccc(S)n1` it is 18.1%; for `C=CC(=O)Nc1cnn(C(C)(C)C)c1C` it is 7.94%.
In the case of `N#Cc1nccnc1N1CCSC2(CCCCC2)C1` it was 1.17%.
In the case of `CS(=O)(=O)NCCc1ccc(C(=O)CCl)cc1` it was 82.8%; in that of `COc1ccc(-c2csc(NC(=O)CCl)n2)c(OC)c1`, 4.4%; in that of `O=C(C=Cc1cccnc1)N1CCN(c2nccs2)CC1`, 10.3%.
In the case of `CC(CS(C)=O)Nc1ccc(C#N)nc1` (centres unmarked), the Inhibition % was 5.3%.
Turning to `CC1Cc2ccccc2N1C(=O)CCN1C(=O)CCC1=O` (centres unmarked), the Inhibition % is listed as 14.9%.
`CN(C(=O)C1CCOCC1)C1CC(C)(C)OC1=O` (centres unmarked): the Inhibition % was 6.67%.
Turning to `C=CC(=O)N1CCSC2CCCCC21` (centres unmarked), the Inhibition % is 6.99%.
`O=C(O)CCn1c(S)nc2cc(Cl)ccc2c1=O`: the Inhibition % amounted to 4.88%.
In the case of `CN1CCOC(CCl)C1` (centres unmarked), the Inhibition % is reported as 2.67%.
The figure for `O=C(O)CN1C(=O)CSC1=O` is 17.6%.
In the case of `Cc1cnn(-c2cccc(B(O)O)c2)c1` it was 9.73%; in that of `O=C(CCCl)NC1CCCc2ccccc21` (centres unmarked), 2.39%; in that of `N#Cc1cccc(CN2C(=O)CSC2=O)c1`, 23.4%.
In the case of `O=C(CCl)Nc1ccccc1C(=O)Nc1ccc(F)cc1` it was 6.28%.
Consider `C=CC(=O)N1CSCC1C(=O)N(C)C(C)C` (centres unmarked), for which the Inhibition % is reported as 0.15%.
The figure for `C=CC(=O)NCC1CCCCC1(F)F` (centres unmarked) is 11.8%.
In the case of `C=CC(=O)N1CC(c2ccccc2)CC1C` (centres unmarked) it was 5.39%; in that of `Nc1ccc(OC2CC(=O)N2)cc1` (centres unmarked), 9.08%; in that of `CC1(C)OB(c2cncc(NS(=O)(=O)c3ccccc3)c2)OC1(C)C`, 8.59%.
In the case of `Cl.Cl.N#Cc1cc(CN)ccn1` it was 4.13%.
`COc1cc(OC)cc(B(O)O)c1`: the Inhibition % turned out to be 4.31%.
In the case of `COC(=O)c1ccccc1CS(=O)(=O)F` it was 7.86%; in that of `CC(C)C1CCCN(c2nccnc2C#N)CC1` (centres unmarked), 1.71%; in that of `O=C(CCl)Nc1cc(C2CC2)nn1-c1ccccc1`, 18.1%.
The figure for `O=C(CCl)Nc1ccc(S(=O)(=O)N2CCOCC2)cc1` is 87.4%; for `CN1C(=O)CCc2cc(C(=O)CCl)ccc21` it is 19.5%.
As for `CN(Cc1cc[nH]n1)C(=O)c1cc(S(=O)(=O)F)c[nH]1`, the Inhibition % was 10.5%.
The figure for `Cc1cn2c(C#N)c(C)nc2s1` is 7.34%; for `CC1(C)OB(c2cncc3sccc23)OC1(C)C` it is 31.3%.
In the case of `C=CC(=O)N1CCSC(C)C1` (centres unmarked) it was 4.98%; in that of `Cc1cc(Oc2nccnc2C#N)ccc1Cl`, 4.22%.
In the case of `N#CN(CC1CCOC1)c1cccc(F)c1` (centres unmarked), the Inhibition % is recorded as 6.11%.
Turning to `O=C(NC1CCCC(C(F)(F)F)C1)c1cccnc1S` (centres unmarked), the Inhibition % worked out at 9.82%.
In the case of `Cc1cc(C)cc(OCC2CO2)c1` (centres unmarked) it was 9.13%; in that of `C=CC(=O)N1CCC(NC(=O)CC(F)(F)F)C1` (centres unmarked), 10.4%; in that of `C=C(C)COCCn1c(S)nc2ccccc2c1=O`, 3.97%.
The figure for `CCCNC(=O)C(C#N)=Cc1ccns1` is 7.03%; for `COc1ccc(C(=O)CCl)cc1F` it is 91.7%; for `COc1ccc(C(=O)NNC(=O)CCl)cc1` it is -3.11%.
Take `CCc1ccc(C(=O)Cn2cnc(C#N)n2)s1`: the Inhibition % came to 6.2%.
The figure for `C=CC(=O)N1CCC2(CC1)CCN(C(=O)C=C)C2` is -0.998%; for `Cn1cc(C=C(C#N)C(=O)NCc2ccccc2)cn1` it is 6.12%; for `O=C(C=Cc1ccccc1)c1ccc(S(=O)(=O)F)cc1` it is 10.9%.
The figure for `C=CC(=O)N1CCN(C)C(=O)C1C` (centres unmarked) is 7.81%.
The figure for `CN(C)C(=O)Sc1ccc(N)cc1.Cl` is 8.03%.
Turning to `Cc1cc(NC(=O)Oc2ccccc2)no1`, the Inhibition % is 5.25%.
As to `COc1ccc(NC(=O)NC(=O)CCl)cc1`, the Inhibition % was found to be 1.55%.
`COc1ccc(C)cc1S(=O)(=O)n1ccnc1C(C)C`: the Inhibition % came out at 7.25%.
For the compound `CN(C)C(=O)CN(C)S(=O)(=O)C=Cc1ccccc1`, the Inhibition % was determined as 11.8%.
In the case of `CCN(CC)C(=O)Oc1ccccc1NC(C)=O`, the Inhibition % is given as 7.53%.
The figure for `C=CC(=O)Nc1cc(C)c2nccn2c1` is 24.8%; for `N#Cc1ccc(NC(=O)CCCl)cc1` it is 9.81%; for `C=CC(=O)N(C)CC1OCCc2sccc21` (centres unmarked) it is 5.36%.
Regarding `C=CC(=O)N1CCCN(C)c2ccccc21`, the Inhibition % is listed as 8.44%.
For the compound `C=CC(=O)N1CCC2(CCCCC2)C1`, the Inhibition % came to 8.62%.
In the case of `CC(C)C1NC(=O)C12CCCCCC2` (centres unmarked) it was 9.56%; in that of `O=C(CCl)N1CCCCCC1`, 14.9%; in that of `O=C(CCl)Nc1cccc(Cl)c1Cl`, 29.1%.
Turning to `O=C(CCl)Nc1cc(C(F)(F)F)ccc1N1CCCCC1`, the Inhibition % is -3.88%.
The figure for `CCc1cccnc1C#N` is 7.82%.
In the case of `C=CC(=O)N1CCC(c2nccs2)CC1` it was 2.06%.
The figure for `N#Cc1cnc(N)cn1` is 19.9%; for `CC1CCN(CN2C(=O)CC2(C)C)CC1` it is 5.57%.
Regarding `C=CC(=O)N1CCCCC1CS(C)(=O)=O` (centres unmarked), the Inhibition % is given as 5.69%.
In the case of `CC1(C)COc2ccc(B3OC(C)(C)C(C)(C)O3)cc21` it was 7.43%; in that of `O=C(CCl)NCC1CCOC1` (centres unmarked), 8.14%.
On to `C#Cc1cccc(NC(=O)CCl)c1`, for which the Inhibition % turned out to be 33.9%.
In the case of `CC1CC(N2CC=C(c3ccc(O)cc3)CC2)C(=O)O1` (centres unmarked) it was 10.6%.
As to `C=CC(=O)N1CCN(c2cnn(C)c2)CC1`, the Inhibition % turned out to be 34%.
The figure for `Cn1cc(CNc2ccc(C#N)nc2)c(C(F)(F)F)n1` is 7.19%; for `O=C(CCl)N1CCNCC1.O=C(O)C(F)(F)F` it is 7.16%.
Regarding `CC1(C)OB(c2ccc3nonc3c2)OC1(C)C`, the Inhibition % is listed as 1.74%.
The figure for `CC1(C)OB(c2ccc(O)cc2)OC1(C)C` is 3.03%; for `N#Cc1ncn(CC(=O)NCCc2cccs2)n1` it is 3.59%; for `C=CCNC(=O)C(C#N)=Cc1ccc(C)o1` it is 6.3%.
Turning to `O=C1CCc2cc(OCCCl)ccc2N1`, the Inhibition % is reported as 6.21%.
The figure for `COCc1nc(C#N)c(-c2ccccc2)s1` is 7.01%.
Turning to `COCCn1c(S)nc2ccccc2c1=O`, the Inhibition % worked out at 4.25%.
Consider `COCCCOc1ccc(B2OC(C)(C)C(C)(C)O2)cc1`, for which the Inhibition % came to 4.04%.
Turning to `Cc1cccc(B2OC(C)(C)C(C)(C)O2)c1Br`, the Inhibition % amounted to 3.4%.
The figure for `Cl.ClCCN1CC2CCC(C1)O2` is 3.05%; for `Cc1cscc1NS(=O)(=O)c1cccc(S(=O)(=O)F)c1` it is 98.1%; for `CC(C)CN1CCN(c2oc(C3CC3)nc2C#N)CC1` it is 6.47%.
Take `C=CC(=O)NCc1ccc(-n2cccn2)cc1`: the Inhibition % came to 4.01%.
On to `O=C(CCCl)Nc1ccccn1`, for which the Inhibition % worked out at 8.88%.
In the case of `CC1(C)OB(c2ccnc3cc(Cl)ccc23)OC1(C)C` it was 3.03%.
In the case of `CC1(C)OB(c2ccc(C(F)(F)F)c(C#N)c2)OC1(C)C` it was 4.29%; in that of `Cc1cccc(N2C(=O)CN=C2S)c1C`, 7.8%; in that of `Cc1ccc(C=C(C#N)C(N)=S)s1`, 12%.
For `O=c1c2ccccc2ncn1CCS(=O)(=O)F`, the Inhibition % came to 14.1%.
With `C=CC(=O)N(Cc1ccccc1)C1C=CS(=O)(=O)C1` (centres unmarked), the Inhibition % is 16%.
The figure for `N#Cc1ncoc1NCCc1ccccc1` is 6.75%; for `COc1cc2c(B3OC(C)(C)C(C)(C)O3)cn(C)c2cn1` it is 6.59%.
The figure for `OB(O)c1ccccc1C1CCC1` is 5.99%.
